Reference: PubChem BioAssay AID1468 (National Center for Advancing Translational Sciences (NCATS), 2008)
Where “and” joins values, the source holds several entries; their conditions need not be identical. Identical values can stand only once. Screen size: about 280,000 compounds; about 1,100 (0.39%) were called active. The shares of active, inactive and inconclusive entries below differ from those in the screen. Calls come from the whole dose curve; as a rule, active = well fitted inhibition curve with a large enough effect; inconclusive = small, poorly fitted or top-dose-only effect, or effect the other way; inactive = flat fitted curve, though single readings scatter. Where the call is inconclusive, the potency comes from a doubtful curve fit. More than one record can exist for a structure, and the calls need not agree.

biological target: Microtubule-associated protein tau (Homo sapiens) (UniProt P10636); assay: qHTS for Inhibitors of Tau Fibril Formation, Fluorescence Polarization; conditions: K18 P301L tau heparin fibrillization, Alexa594 FP, 6 h; series mostly up to 57.7 µM; note: nearly all actives have a fitted effect of over 55% in size
Sequence of UniProt P10636 (P10636 whole entry, looked up): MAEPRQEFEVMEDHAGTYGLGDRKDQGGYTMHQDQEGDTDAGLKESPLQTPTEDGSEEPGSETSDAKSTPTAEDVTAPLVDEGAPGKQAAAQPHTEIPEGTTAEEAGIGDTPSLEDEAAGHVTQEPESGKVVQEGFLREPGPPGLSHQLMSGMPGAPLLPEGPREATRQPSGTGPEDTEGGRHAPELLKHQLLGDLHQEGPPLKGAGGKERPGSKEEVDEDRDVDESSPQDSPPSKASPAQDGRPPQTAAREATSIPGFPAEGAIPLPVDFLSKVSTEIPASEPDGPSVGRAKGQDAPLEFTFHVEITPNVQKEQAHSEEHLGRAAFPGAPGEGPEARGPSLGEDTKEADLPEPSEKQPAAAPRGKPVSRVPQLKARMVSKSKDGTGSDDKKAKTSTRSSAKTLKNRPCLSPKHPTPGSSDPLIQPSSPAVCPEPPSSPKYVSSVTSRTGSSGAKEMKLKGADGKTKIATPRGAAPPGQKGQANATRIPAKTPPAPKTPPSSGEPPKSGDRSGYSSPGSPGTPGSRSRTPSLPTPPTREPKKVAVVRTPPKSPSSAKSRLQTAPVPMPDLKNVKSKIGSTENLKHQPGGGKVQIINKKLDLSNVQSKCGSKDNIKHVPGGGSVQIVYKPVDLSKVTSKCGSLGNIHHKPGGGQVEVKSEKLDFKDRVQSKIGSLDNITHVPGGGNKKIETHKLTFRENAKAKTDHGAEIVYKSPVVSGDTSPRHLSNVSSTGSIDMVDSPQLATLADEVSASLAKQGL
Procedure, shortened: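 Recombinant K18 P301L […], labeled with Alexa 594 at 0.24 uM over 15 uM unlabeled; heparin inducer 20 uM final; 37 C, 6 hr; FP endpoint.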
Potency is the fitted concentration of half-maximal effect; tags give direction and shape of the fitted curve.

Structure (SMILES)	Potency
CNCCc1cnc[nH]1	inconclusive: 0.0794 µM [inhibitor, full curve, poor fit]
CCCCN1C(=O)/C(=C/C=C/c2ccco2)C(=O)NC1=S	inconclusive: 35.5 µM [inhibitor, single point]
O=C(CSc1ccccc1)Nc1ccc(C(=O)Nc2cccc(O)c2)cc1	inconclusive: 11.2 µM [inhibitor, partial curve]
CCn1nc(-c2ccccc2)nc2c(=O)n(C)c(=O)nc1-2	inconclusive: 15.8 µM [inhibitor, partial curve]
Cc1ccc(Cl)cc1NC(=O)Cn1c(=O)oc2cc(S(=O)(=O)N3CCCCCC3)ccc21	inconclusive: 17.8 µM [inhibitor, partial curve]
CC(C)(C)c1cc(C=C(C#N)C#N)cc(C(C)(C)C)c1O	inconclusive: 22.4 µM [inhibitor, partial curve, poor fit] and inconclusive: 28.2 µM [inhibitor, partial curve]
Cc1ccc(N2C(=O)CC(=O)NC2=O)cc1	inactive
Cc1ccccc1-n1c(O)c(C(c2ccncc2)c2c(O)n(-c3ccccc3C)c(=O)[nH]c2=O)c(=O)[nH]c1=O	inconclusive: 39.8 µM [inhibitor, single point]
C[C@H]1O[C@@H](O[C@H]2[C@@H](O)C[C@H](O[C@H]3[C@@H](O)C[C@H](O[C@H]4CC[C@]5(C)C6CC[C@]7(C)[C@@H](C8=CC(=O)OC8)CC[C@]7(O)C6CC[C@@H]5C4)O[C@@H]3C)O[C@@H]2C)C[C@H](O)[C@@H]1O (some centres undefined)	inactive
CC[C@@H](CO)NC(=O)[C@@H]1C=C2c3cccc4[nH]cc(c34)C[C@H]2N(C)C1	inactive
CCc1ccc(NC(=O)c2ccc3oc(=O)n(Cc4ccccc4)c3c2)cc1	inconclusive: 39.8 µM [inhibitor, single point]
O=c1c2ccccc2nc(/C=C\c2cccc(Br)c2)n1-c1ccc(O)cc1	inconclusive: 10 µM [inhibitor, partial curve]
O=C(CSc1nc(-c2ccc(Cl)cc2)[nH]c(=O)n1)Nc1cccc(Cl)c1	inconclusive: 14.1 µM [inhibitor, partial curve]
CCN1C(=O)C(=C/C=C/c2ccco2)C(=O)N(CC)C1=S	inconclusive: 17.8 µM [inhibitor, partial curve]
CCOC(=O)c1ccc(N2C(=O)c3[nH]nc(-c4ccccc4)c3C2c2ccc(C(C)C)cc2)cc1 (centres undefined)	inconclusive: 17.8 µM [inhibitor, partial curve]
O=C(Nc1ccc(Br)cc1)c1ccc(Cl)c(S(=O)(=O)N2CCCCCC2)c1	inconclusive: 10 µM [inhibitor, partial curve]
CC(N)[C@@H](O)c1ccccc1 (some centres undefined)	inactive
Oc1c(Br)cc(Br)cc1Oc1ccc(Br)cc1Br	inconclusive: 39.8 µM [inhibitor, single point]
CN1CCC2(CC1)C(C#N)=C(N)NC(S)=C2C#N	inconclusive: 3.98 µM [inhibitor, partial curve] and inconclusive: 28.2 µM [inhibitor, single point]
O=C(Nc1ccc(Cl)c(C(F)(F)F)c1)c1ccc2c(c1)CCN2S(=O)(=O)c1ccccc1	inconclusive: 20 µM [inhibitor, partial curve]
CCC(C)n1c(C)cc(C(N)=O)c1C (centres undefined)	inactive
CC(C)C(O)(C(=O)OC[C@@H]1CC[N+]2([O-])CCCC12)C(C)O (some centres undefined)	inactive

Structure (SMILES)	Potency
N#Cc1c(Cl)c(Cl)c(Cl)c(C#N)c1Cl	inconclusive: 1.78 µM [inhibitor, full curve]
CCOc1cccc(OCC)c2c(C)[n+](CC3CCCO3)c(C)c1-2 (centres undefined)	inconclusive: 39.8 µM [inhibitor, single point]
O=C(CCN1CCOCC1)NCC(=O)Nc1ccc(Br)cc1C(=O)c1ccccc1	inactive
CN(C)c1ccc(-[n+]2c(-c3ccccc3)cc(-c3ccccc3)cc2-c2ccccc2)cc1	inactive
O=C1CC(N2CC=C(c3ccc(F)cc3)CC2)C(=O)N1c1ccc(F)cc1 (centres undefined)	inconclusive: 39.8 µM [inhibitor, single point]
COc1ccc(C(=O)Nc2ccc(S(=O)(=O)N(Cc3ccccc3)c3ccccc3)cc2)cc1	active: 15.8 µM
c1ccc(-c2nc(N3CCOCC3)s[n+]2-c2ccccc2)cc1	inactive
CC(C)[C@@]1(NC(=O)[C@@H]2C=C3c4cccc5[nH]cc(c45)C[C@H]3N(C)C2)O[C@@]2(O)[C@@H]3CCCN3C(=O)[C@H](Cc3ccccc3)N2C1=O	inconclusive: 25.1 µM [inhibitor, single point]
O=C(O)c1ccc2c(c1)C1C(Cl)C(Sc3ccccc3[N+](=O)[O-])CC1C(c1cccc([N+](=O)[O-])c1)N2 (centres undefined)	inactive
CC1(C)C(c2ccccc2)=NC(c2cccnc2)=[N+]1[O-]	inconclusive: 22.4 µM [inhibitor, partial curve]
NC(CO)Cc1ccccc1 (centres undefined)	inactive
O=C1NC(=S)N(c2ccc(Cl)cc2)C(=O)/C1=C/N1CCN(C(=O)c2ccco2)CC1	inconclusive: 10 µM [inhibitor, partial curve, poor fit]
CC(C)C1C(c2ccccc2)N(C)C(c2ccccc2)CC1(O)c1ccccc1 (centres undefined)	inconclusive: 28.2 µM [inhibitor, single point]
COc1ccccc1N1C(=O)NC(=O)/C(=C/c2ccc([N+](=O)[O-])s2)C1=O	active: 31.6 µM
CC[C@@H](CO)NC(=O)[C@@H]1C=C2c3cccc4c3c(cn4C)C[C@H]2N(C)C1	inconclusive: 25.1 µM [inhibitor, single point]
CCCN(CC#CCOc1ccc(OC)cc1)CCC	inactive
CCCNC(=O)c1c(N)n(Cc2ccco2)c2nc3ccccc3nc12	inconclusive: 39.8 µM [inhibitor, single point]
CCc1ccc(NC(=O)Cn2c(=O)oc3cc(S(=O)(=O)NCc4ccccc4)ccc32)cc1	inconclusive: 31.6 µM [inhibitor, partial curve, poor fit]
COc1ccccc1N1C(=O)NC(=O)/C(=C/c2ccc3c(c2)Cc2ccccc2-3)C1=O	inactive
CN1/C(=C\C=C\C2=[N+](C)c3ccc4ccccc4c3C2(C)C)C(C)(C)c2ccccc21	inconclusive: 0.562 µM [inhibitor, full curve]
O=C(O)CCC(=O)NCCC1=c2ccccc2=N/C1=C\c1c(O)n(Cc2ccc(F)cc2)c(=S)[nH]c1=O	inactive
O=C(COc1ccc2ccccc2c1)N1CCN(Cc2ccncc2)CC1	inconclusive: 44.7 µM [inhibitor, single point]

Structure (SMILES)	Potency
CCOC(=O)c1ccc(N2C(=O)c3n[nH]c(-c4cccs4)c3C2c2ccc(OC)cc2OC)cc1 (centres undefined)	inconclusive: 25.1 µM [inhibitor, partial curve]
COC(=O)c1cn(C(=O)c2cccc3ccccc23)c2ccccc12	inconclusive: 31.6 µM [inhibitor, partial curve]
C[C@]12C=CC(=O)C=C1CCC1C2=CC[C@]2(C)[C@@H](C(=O)CN3CCN(c4cc(N5CCCC5)nc(N5CCCC5)n4)CC3)CC[C@@H]12 (some centres undefined)	inconclusive: 12.6 µM [inhibitor, partial curve]
O=C1NC(=S)N(Cc2ccco2)C(=O)/C1=C\c1cccs1	inconclusive: 12.6 µM [inhibitor, partial curve]
N#CC(C#N)=NNc1cccc(Cl)c1	inconclusive: 44.7 µM [activator, single point]
CC1=NN(c2ccccc2)C(=O)/C1=C/c1c(O)[nH]c(=S)[nH]c1=O	inconclusive: 35.5 µM [inhibitor, single point]
O=[N+]([O-])c1cc([As](=O)(O)c2ccc(O)c([N+](=O)[O-])c2)ccc1O	inconclusive: 3.98 µM [inhibitor, single point]
CC1OC1P(=O)(O)O (centres undefined)	inconclusive: 31.6 µM [inhibitor, single point]
Cn1c(O)c(C=Nc2ccccc2-c2ccccc2)c(=O)n(C)c1=O	inactive
O=C1NC(=O)C(=Cc2ccc(Oc3ccc([N+](=O)[O-])cc3)cc2)C(=O)N1	inconclusive: 11.2 µM [inhibitor, partial curve]
O=CC(Br)P(=O)(N1CCOCC1)N1CCOCC1 (centres undefined)	active: 25.1 µM
CN1CCN(c2ccc(S(C)(=O)=O)cc2[N+](=O)[O-])CC1	inactive
O=C1NCN(c2ccccc2)C12CCN(CCCOc1ccc(F)cc1)CC2	inconclusive: 5.01 µM [inhibitor, single point]
Cc1ccc2[nH]c(=S)n(-c3cccnc3)c(=O)c2c1	inactive
COc1ccc(OC)c(N=Cc2c(O)n(Cc3ccccc3)c(=S)[nH]c2=O)c1	inactive
CC(C)(O)C1O[C@H]2CC[C@@]3(C)[C@@](O)(CC[C@H]4Cc5c([nH]c6ccccc56)[C@@]43C)C2=CC1=O (some centres undefined)	inconclusive: 5.62 µM [activator, partial curve] and inconclusive: 22.4 µM [activator, partial curve]
N#CC(C#N)=Cc1cc(O)c(O)c(O)c1	active: 22.4 µM
CCCCCCCCCCCCCCCC[N+](C)(C)C	inconclusive: 10 µM [activator, partial curve]
CCCCCn1c(NC(=O)c2ccco2)c(C(=O)OCC)c2nc3ccccc3nc21	inconclusive: 39.8 µM [inhibitor, single point]
C=C(C)CN1CC[C@]23c4c5ccc(O)c4O[C@H]2c2[nH]c4ccccc4c2C[C@@]3(O)C1C5	inconclusive: 25.1 µM [activator, single point]
